Among the data in the RNAGym collection of RNA variant scans (doi:10.7554/elife.90254) are self-cleavage values, retold here.

Read counts are not given, so values of variants with three or more changes are uncertain.

Sequences and labels used below:
B1: LINE1-mini (parent)
chain: GGCAGAGCUCAACACAGCGUGGCAAAGUGGCUGUGGCUAGACUGCC

In the data set the parent is B1. Put plainly: self-cleavage, relative activity (ratio to wild type); higher = more cleavage; in vitro, sequencing; the parent is a self-cleaving ribozyme.
Take A16G G22U C31A: the self-cleavage is 0.02. As for A16U A25G G35C U43A, the self-cleavage amounted to 0.01. As for C15U G19A G40U, the figure is 0.06; as for A16G C23G G27C G36A, 0.08. For the variant C15U U38G A41U, the self-cleavage is 0.02. C15U C23U G30U: the self-cleavage was determined as 0.57. Take C15G U20G A24G C31G: the self-cleavage amounted to 0.01.

Regarding C15G U20G C31A G33U G36U, the self-cleavage was 0.04.

Regarding A16U G17A G22A G29A, the self-cleavage was determined as 0.01.

Regarding A16G A26G U28A G30U, the self-cleavage amounted to 0.11. Turning to C15U C18U A26U, the self-cleavage worked out at 0.17. The figure for A16G G30C C37U is 0.03; for C15A U28C C46A it is 0.02; for A16C A24U U32G U43A it is 0.02. As for C15U A39U C46U, the figure is 0.26; as for C15U C18A G30U C31G G44U, 0.02.

C15U C18G G22U C37U: the self-cleavage was 0.03. The figure for A16U C23U C37G C46G is 0.13. In the case of C15G U28G C31U G35A A39G, the self-cleavage was 0.02. Regarding A16U A24G G29U U32G G40U, the self-cleavage stood at 0.1.

For the variant C15U G29U A39G, the self-cleavage stood at 0.06. The figure for C15U G21U G36U C45A is 0.02; for C15G G17C U20G U32A C37A it is 0.18; for C15U C42G C45A it is 0. On to A16G U43A C46U, for which the self-cleavage came out at 0.15. The figure for C15G A16C C23U is 0.03. As for C15U A25C C46A, the figure is 0.09. The figure for A16U C18A G21C C23A U32A G40A G44U is 0.01.

A16C C23A G35C G44A: the self-cleavage is 0.2. The figure for C15G G17U C42U is 0.06; for C15U A26G C45G it is 0.1; for A16C G17U G21C C37A it is 0.06. In the case of A16G A24C G30A G35A, the self-cleavage came to 0.11. On to A16U A24G G29A, for which the self-cleavage is 1.38.

Consider C15G G29C U34A C46G, for which the self-cleavage is 0.01. As for A16U G17A C18G, the self-cleavage was 0.02.

Take C15G G27C U28A: the self-cleavage is 0.06. As to A16G C18A C42A, the self-cleavage was 0.02.

Regarding A16G G22A G35C C42A U43C, the self-cleavage was determined as 0.02.

Regarding C15U C23G G30A U43G, the self-cleavage was determined as 0.11.

On to C15G G21U A39C G40A, for which the self-cleavage was determined as 0.

As to C15G U20G G27U C46A, the self-cleavage was 0.03. A16G C23G U38G: the self-cleavage stood at 0. The figure for C15U G35C C42U C45A is 0; for C15G U28C G29C G35A it is 0.02; for A16C G19C U38A it is 0.33. Take A16G C18U G27U C37G: the self-cleavage was 0.05. In the case of A16G U28G U43A C45G, the self-cleavage is 0.03. As for C15G A16U G30U, the figure is 0.05.

On to C15U G19U U20G U28G C46G, for which the self-cleavage was 0.67.

In the case of A16C C23U G40A C45G C46U, the self-cleavage came to 0.07.

C15A G33C G40A: the self-cleavage was 0.04.

On to C15G U28A U38A, for which the self-cleavage came out at 0.04. The figure for C15A G27U G30U is 0.16. The figure for C15U G29A G40A U43A is 0.12. Regarding A16G G19C C31A U32A G44C, the self-cleavage turned out to be 0.02.

Regarding C15U U20C U28G, the self-cleavage stood at 0.9. As for C15U A24C U38A, the figure is 0.04; as for C15U A16C G27C, 0.06. Take A16U A25C A39U: the self-cleavage worked out at 0.01. As for C15U C23A G30C C42A, the figure is 0.06; as for C15G A26C U28G, 0.02; as for C15G G21A G35U, 0.03. Regarding C15G G19U C46U, the self-cleavage came out at 0. As for C15G A16U U20C G30A G36U, the figure is 0. Consider A16G C31A C46G, for which the self-cleavage is 0.04.

Take C15U A25C G36C G44C: the self-cleavage worked out at 0.01.

Regarding A16C U20C G21C C23G C45G, the self-cleavage came out at 0.02. The figure for A16G G27C U32A is 0.04; for C15G C31A G40A it is 0.02. Consider C15G U28G G40C, for which the self-cleavage was determined as 0.02.

As for C15G A39C C45A, the self-cleavage amounted to 0.03.

In the case of A16C G19U G33C C46A, the self-cleavage was 0.04. For A16C G17A G30A, the self-cleavage was found to be 0.06. As for C15U G29A C42U, the self-cleavage was found to be 0.35. On to C15U A16C U20A A41U C45U, for which the self-cleavage came to 0.01. The figure for A16U G17C G21U is 1.18; for A16C G35C A41C it is 0.02. The figure for A16G G19U G27U C31U G40U is 0.02. As for A16C G29U G40U, the figure is 0.02; as for C15G G27C G40U, 0.02. With C15U G21A G22U A26C, the self-cleavage amounted to 0.74.

In the case of C15U G22U C46A, the self-cleavage was determined as 0.57. As to C15G C18A U34A, the self-cleavage came out at 0.02.

Turning to C15G A24C C42G U43C, the self-cleavage turned out to be 0. The figure for C15U G29A U32G is 0.23; for A16U G17C G30A C37G G40U C45U it is 0.02. Take A16G G29U G40A: the self-cleavage amounted to 0.03. As to C15A G30A C31G A41U, the self-cleavage came to 0. The figure for A16C G17U C37A A39G C45A is 0.

With A16G G30A G36C, the self-cleavage came to 0.06. As for C15U A16C C18U C42G, the figure is 0.05. The figure for C15U C18G G22A U38G is 0.05. The figure for A16G A24C A26U is 0.02.

Regarding A16C G19A A24U, the self-cleavage was 0.05. The figure for A16G A24U U28A G36A is 0.17.

For the variant A16C G22A G35U A41C, the self-cleavage is 0.02. Take A16C G19A U34A C37U G40U: the self-cleavage turned out to be 0. As for A16C G30U C46G, the figure is 0.03; as for A16U C31U G36C, 0.03; as for A16G G17U U28A, 0.75.

As for A16C G19U U20C C37G A41U C46G, the self-cleavage was 0.

In the case of C15U G29U A39C G40A, the self-cleavage is 0.2. The figure for C15A U34A C37A is 0.03; for A16C A41C C42G it is 0.08; for C15A U20C C31G U38A it is 0. As for A16C G35U C42U, the figure is 1.29. For the variant C15A U20C C23U A41C, the self-cleavage is 0.05. The figure for A16U C37A C46U is 0.02. With A16U C37A G40U A41C, the self-cleavage stood at 0.11. As for C15G U38C G40U, the figure is 0.01; as for A16C G19C G27U, 0.6. With C15U G27U U28G, the self-cleavage worked out at 0.19. The figure for C15G G30A U34A is 0.01; for A16G G19C G22C C46U it is 0.13. The figure for A16G G27A U32C U43G is 0.09; for C15U U28G G35U it is 0.13. The figure for C15G G19A G33A G36C is 0.03; for C15G G22C G40A C42G it is 0; for C15G G22U A26C C37G it is 0. In the case of A16U C31U U43A, the self-cleavage was found to be 0.01.

A16C C23G G33U: the self-cleavage came to 0.02. As for C15U G29C C31U, the figure is 0.17; as for C15U C18A A25C U43A, 0; as for C15U A24G U43C, 0.07. The figure for C15G G19A G21U G22U is 0.06. Turning to A16G A24G C31G, the self-cleavage is 0.01. The figure for C15U G33U G40A U43G C45A is 0.03; for C15U G21U G40U it is 0.03. Regarding A16C G21U C45A, the self-cleavage worked out at 0.05. Take A16G G17U A26C C31U: the self-cleavage amounted to 0.01.

As for C15G A25U G40U, the self-cleavage amounted to 0.02. As for A16U A26C C37G G40A, the self-cleavage is 0. As for C15U G17U U20C, the figure is 0.03; as for C15G C18G G22U, 0.03. With C15U G22C G35A G44A, the self-cleavage was determined as 0.05.

As for C15G C37A U38C C45G, the self-cleavage stood at 0.04. The figure for A16G G17C U28G is 0.36. For the variant C15G U28G G33U, the self-cleavage amounted to 0.09. As for C15U G35U G40C A41C, the figure is 0.02; as for C15A U28G G30A, 0.02. On to C15U A16C A25C, for which the self-cleavage was 0.05. C15A U38G G44C: the self-cleavage turned out to be 0.01. For the variant C15G G17A G35U, the self-cleavage worked out at 0.01.

C15A U32G C46U: the self-cleavage came out at 0.03. With C15A G35C U38G G40C, the self-cleavage was 0.09. For C15U U20C G36U, the self-cleavage stood at 0.14. As to C15A G36A A39U G40U U43A, the self-cleavage is 0.04. As for A16G C18U A25C U34G, the self-cleavage was determined as 0.02. As for C15U G27C C31G, the figure is 0.06; as for A16U C18U G19U G35A, 0.03. The figure for A16C C23A C45A is 0.13; for A16G C23U G33U C42U it is 0.02; for C15G G33C U38G it is 0. The figure for C15U C18A G35C C45G is 0.01; for A16U C37A G40C it is 0.06. C15U G21A C37A: the self-cleavage amounted to 0.07.

A16G C18A A25U G30A A39U: the self-cleavage was 0.08.

On to C15A G27C G40C, for which the self-cleavage came out at 0.24. For A16C G17A C37U, the self-cleavage was found to be 0.08. As for A16G C18U U34A C42A G44A, the figure is 0.01; as for A16U G17A G19U U20G A25G, 0.02. C15U A25G U28G: the self-cleavage worked out at 0.17.

Consider C15U U28A G40A C42U C45G C46U, for which the self-cleavage was determined as 0.05. Regarding C15U G27C U28A G29C, the self-cleavage worked out at 0.44. As to A16C C31A G36A, the self-cleavage stood at 0.03. The figure for A16G G29U U34A is 0.02.
